Measurements taken from PubChem BioAssay AID1030 (National Center for Advancing Translational Sciences (NCATS), 2008).
Among all 220,000 compounds or so, about 16,000 (7.3%) were called active. The inconclusive results got no clear call from the source; some entries with a clear call stand among them for comparison. Calls follow the shape of the dose curve; as a rule, active = well fitted inhibition curve with a large enough effect (not every such curve was filed as active); inconclusive = small, poorly fitted or top-dose-only effect, or another doubt; inactive = no such curve, though single readings can be large or run the other way. A potency beside an inconclusive call is a rough fit, not a confirmed value.

biological target: Aldehyde dehydrogenase 1A1 (Homo sapiens) (UniProt P00352); assay: qHTS Assay for Inhibitors of Aldehyde Dehydrogenase 1 (ALDH1A1); conditions: Purified ALDH1A1, NADH fluorescence, propionaldehyde substrate; series mostly up to 75.3 µM;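 as to activity, negative = inhibition: plate controls were no enzyme wells and a reference inhibitor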
Potency is read from the fitted curve at half-maximal effect; tags tell the direction and shape of the fitted curve.

Chain of UniProt P00352 (P00352 whole entry, looked up): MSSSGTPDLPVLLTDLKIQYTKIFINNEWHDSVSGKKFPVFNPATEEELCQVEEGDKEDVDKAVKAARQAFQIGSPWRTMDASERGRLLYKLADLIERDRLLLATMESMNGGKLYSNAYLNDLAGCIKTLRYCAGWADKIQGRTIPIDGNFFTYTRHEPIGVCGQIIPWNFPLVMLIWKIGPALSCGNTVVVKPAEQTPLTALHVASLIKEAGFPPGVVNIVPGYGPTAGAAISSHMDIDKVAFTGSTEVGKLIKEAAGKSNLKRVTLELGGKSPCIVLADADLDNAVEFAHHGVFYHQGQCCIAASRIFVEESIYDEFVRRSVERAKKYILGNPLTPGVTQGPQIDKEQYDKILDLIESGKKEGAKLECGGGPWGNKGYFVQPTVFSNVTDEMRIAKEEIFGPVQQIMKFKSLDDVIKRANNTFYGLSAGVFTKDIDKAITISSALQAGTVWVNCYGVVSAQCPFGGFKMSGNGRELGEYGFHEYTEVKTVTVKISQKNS

Potency, inactive:
COc1ccccc1CNC(=O)C(C)Sc1ccsc1[N+](=O)[O-] (stereo unspecified)
CCOc1ccc(-n2nc3c(SCCN4CCCC4)nnc(C)c3c2C)cc1
COc1ccc(CCNC(=O)COC(=O)/C=C/c2ccc(OC)c(OC)c2)cc1
Cc1ccc(C(=O)OC2OC(=O)C(Cl)=C2N2CCOCC2)cc1 (stereo unspecified)
N/C(=N\N=C\c1ccco1)SC1CC(=O)N(c2ccccc2)C1=O (stereo unspecified)
O=C(c1cccc(C(F)(F)F)c1)c1c[nH]c(C(=O)NCC2CCCO2)c1 (stereo unspecified)
COc1ccc(CONS(=O)(=O)c2ccc(NC(C)=O)cc2)cc1Cl
CC(=O)NC(CC(=O)Nc1nc(C)cs1)c1ccccc1 (stereo unspecified)
CC(C)[C@@H](CC(=O)N[C@@H]1CCNC[C@H]1C(=O)N[C@H](CC(=O)N[C@@H](CCC(=O)O)CC(=O)O)Cc1ccccc1)NC(=O)C[C@H](Cc1c[nH]c2ccccc12)NC(=O)[C@@H]1CNCC[C@H]1N
O=S(=O)(NCCc1ccccc1)c1cccc2cccnc12
COc1ccc(-n2c(=O)c(C)nc3cnc(Nc4ccccc4)nc32)cc1
COc1ccc(NC(=O)C2CCC(CNc3c(N4CCC(C)CC4)c(=O)c3=O)CC2)cc1OC (stereo unspecified)
Cc1[nH]nc(SCC(=O)NC2CCCCC2)c1[N+](=O)[O-]
CN(Cc1cc2cc(F)ccc2[nH]1)Cc1nc(-c2cnccn2)no1
CC(=O)c1ccc(NC(=S)NCc2ccc(Cl)cc2Cl)cc1
O=C(CCc1ccccc1)NCc1cccnc1

Potency, active:
COc1ccc(NC(=O)N2CC[C@@]3(CCCN(C(=O)c4cccc(F)c4)C3)C2)cc1 17.8 µM
O=C(c1ccco1)N1CCN(C(c2ccccc2F)c2nnnn2Cc2cccs2)CC1 (stereo unspecified) 17.8 µM
O=C(CSc1nc(-c2ccccc2)ns1)N1CCOCC1 12.6 µM
COc1ccc(C2CC(=O)N3CN(c4ccc(C)c(Cl)c4)CSC3=C2C#N)cc1OC (stereo unspecified) 7.94 µM
O=C(c1sc2cccc(F)c2c1Cl)N1CCN(c2ncccn2)CC1 28.2 µM
CCN1CCc2c(sc(NC(=S)NC(=O)c3ccco3)c2C(N)=O)C1 7.94 µM
O=C1c2cccc3cccc(c23)C(=O)N1Nc1ccccc1 25.1 µM
CC(=O)c1ccc(NCCC(=O)c2ccccc2)cc1 6.31 µM
O=S(=O)(/N=S1/CC=CCN1S(=O)(=O)c1ccccc1)c1ccccc1 (stereo unspecified) 2 µM
O=C(Nc1ccc(Nc2ccccc2)cc1)C(Cl)Cl 12.6 µM

Potency, inconclusive:
CC(=O)N=C1SC2CS(=O)(=O)CC2N1c1c(Cl)cccc1Cl (stereo unspecified) 25.1 µM [inhibitor, single point]
O=C1CC(NCc2ccncc2)C(=O)N1c1ccc(Cl)cc1 (stereo unspecified) 39.8 µM [inhibitor, single point]
C=CCNCc1cccn1-c1ccccc1 39.8 µM [inhibitor, single point]
CCC(C)/C=C/C1=CC2=C(Cl)C(=O)C3(C)OC(=O)C(C(=O)C(C)C(C)O)C3C2=CO1 (stereo unspecified) 25.1 µM [inhibitor, single point]
Cc1c(Cc2ccccc2)c(=O)oc2cc(OCc3nn[nH]n3)ccc12 25.1 µM [inhibitor, partial curve]
CCCc1c(C)c(C#N)c2nc3ccccc3n2c1NCCCN1CCOCC1 39.8 µM [inhibitor, single point]
CC(C)Cc1nnc(NC(=O)CCC(=O)N2CCN(c3ccccn3)CC2)s1 39.8 µM [inhibitor, single point]
CCc1ccc(NC(=O)c2cnc(N3CCN(c4ccccn4)CC3)c3ccccc23)cc1 31.6 µM [inhibitor, partial curve]
COc1ncc2nc(-c3ccccc3)c(=O)n(C[C@H]3CCCO3)c2n1 31.6 µM [inhibitor, partial curve]
Cc1ccc(N/N=C(\C#N)C(N)=S)c(C)c1 1.58 µM [inhibitor, partial curve]
COc1cc(OC)c2c(-c3cccc(-c4cccc(C)c4)c3)cc(=O)oc2c1 28.2 µM [inhibitor, partial curve]
O=C(O)CCc1c2ccc(=O)c(O)c-2oc2c(O)c(O)ccc12 7.08 µM [inhibitor, single point]
O=S1(=O)C[C@@H](N2CCOCC2)[C@H](N2CCOCC2)C1 5.01 µM [inhibitor, full curve]
CCC(=O)Nc1ccccc1C(=O)OCc1ccc(C(=O)c2ccccc2)cc1 35.5 µM [inhibitor, partial curve]
CC(C)c1nnc(NC(=O)CSc2ccccc2)s1 22.4 µM [inhibitor, single point]
O=c1[nH]c(-c2ccc(Cl)cc2)nc2c1cnn2-c1ccccc1 35.5 µM [inhibitor, single point]
CCCCN(CC)C(=S)Nc1ccc2nc(N3CCN(C)CC3)cc(C)c2c1 25.1 µM [inhibitor, single point]
CN(Cc1ccco1)c1ncnc2ccc(-c3ccccc3Cl)cc12 39.8 µM [inhibitor, single point]
Cc1cccnc1NC(=O)c1ccc2nc(N)sc2c1 25.1 µM [inhibitor, partial curve]
CCOc1ccccc1C(=O)Nc1ccccc1-c1ccccc1 31.6 µM [inhibitor, single point]
Cc1ccc(NC(=O)c2cc3nc(C)cc(C)n3n2)cc1 39.8 µM [inhibitor, single point]
COc1ccc(CCN(Cc2ccccn2)C(=S)Nc2ccccc2Cl)cc1OC 35.5 µM [inhibitor, single point]
COc1ccc(C2NC(=O)c3ccccc3N2)cc1OC (stereo unspecified) 20 µM [inhibitor, partial curve]
C/C(CCc1ccccc1)=N\NC(=O)COc1ccccc1C 7.94 µM [inhibitor, full curve]
COc1ccc(NS(=O)(=O)c2cccc(N3CC(O)=C(c4ccccc4)C3=N)c2)cc1 28.2 µM [inhibitor, single point]
CCOC(=O)c1c(NC(=O)CSc2nnc(CNc3ccc(F)cc3)o2)sc(C)c1C 25.1 µM [inhibitor, single point]
CS(=O)(=O)N1CCN(c2cnn(-c3ccccc3)c(=O)c2Cl)CC1 12.6 µM [inhibitor, partial curve]
Cc1ccc(C(=O)N(CC(=O)NC2CCCC2)Cc2cccs2)s1 28.2 µM [inhibitor, single point]
N#Cc1ccc(CN2CCCC3(CCN(S(=O)(=O)c4ccccc4)CC3)C2)cc1 39.8 µM [inhibitor, single point]
Cc1ccc2c(c1)c1c(n2CC(O)Cn2nc(C)c(Br)c2C)C(=O)CCC1 (stereo unspecified) 5.62 µM [inhibitor, partial curve]
Cc1ccc(NC(=O)C(=O)NCc2ccc(/C=C(/C#N)C(=O)NCc3cccnc3)o2)cc1C 39.8 µM [inhibitor, single point]
COc1ccc(NC(=O)COC(=O)c2c3c(nc4ccccc24)CCCC3)cc1 31.6 µM [inhibitor, single point]
COc1cc(NC(=O)C/C(C)=N/NC(=O)Cc2ccccc2)c(OC)cc1Cl 39.8 µM [inhibitor, single point]
CC1=CC(=O)C=C(C)C1=NOc1ccccc1[N+](=O)[O-] 25.1 µM [inhibitor, single point]
CC(C)CN(C(=O)COC(=O)c1ccc(-c2ccccc2)cc1)C1CCS(=O)(=O)C1 (stereo unspecified) 39.8 µM [inhibitor, single point]
CCCS(=O)(=O)N1CCC(C(=O)N2CCOCC2)CC1 15.8 µM [inhibitor, partial curve]
Cc1cc(NC(=O)CCCC(=O)NCc2ccccc2)no1 37.7 µM [inhibitor, partial curve, poor fit]
CCN1/C(=C2/SC(=S)NC2=O)Sc2ccccc21 14.1 µM [inhibitor, partial curve]
CCOC(=O)Cn1nnc(-c2ccc(SC)cc2)n1 37.7 µM [inhibitor, single point]
COc1cc(C(=O)NC(=S)Nc2ccc([N+](=O)[O-])cc2)cc(OC)c1OC 3.55 µM [inhibitor, full curve]
CC(C)CCOc1ccc(-c2c(=O)n(OCc3ccc([N+](=O)[O-])cc3)c3ccccc3[n+]2[O-])cc1 7.94 µM [inhibitor, partial curve]
Cc1nc2cccc(C(=O)Oc3ccc([N+](=O)[O-])cc3)c2o1 39.8 µM [inhibitor, single point]
CCOc1c2ccc(C(=O)NCc3ccccc3OC)cc2nn1CC 28.2 µM [inhibitor, single point]
Oc1ccccc1C1=Nc2ncnn2C(c2ccccc2)C1 (stereo unspecified) 37.7 µM [inhibitor, single point]

activity, negative = inhibition, inactive:
CCCCc1nc2c(c3c1C[C@H](C)OC3)CN(S(=O)(=O)c1ccc(C)cc1)CC2 -7.75% [at 13.5 µM]
